# Source: PubChem BioAssay AID686978 (National Center for Advancing Translational Sciences (NCATS), 2013)
# The whole screen tested about 420,000 compounds, of which about 64,000 (15%) were called active. Inconclusive means that the source gave no clear call. Such entries were picked first, then a sample of the others. Calls follow the shape of the dose curve; as a rule, active = well fitted inhibition curve with a large enough effect; inconclusive = small, poorly fitted or top-dose-only effect; inactive = flat fitted curve, though single readings scatter. Potencies of inconclusive entries are left out as doubtful fits.
# Test: qHTS for Inhibitors of human tyrosyl-DNA phosphodiesterase 1 (TDP1): qHTS in cells in absence of CPT; also: nearly all actives have a fitted effect of over 55% in size
# Conditions: DT40 Tdp1-/- hTDP1 cells, no CPT, ATP luminescence, 48 h; activity change, negative = growth inhibition: at 46.2 µM (top of the series) unless noted
# Procedure, shortened: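 Chicken DT40 Tdp1-/- cells stably complemented with human TDP1 were seeded at 400 cells/well with DMSO in place of 20 nM camptothecin. After compound pinning, cells grew at least 48 hr at 37 °C; viability read by CellTiter-Glo luminescence.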
# % is scaled to controls: 0 for no effect and ±100 for the full control effect; potency is read from the fitted curve at half-maximal effect; tags tell the direction and shape of the fitted curve.
SMILES,"activity change, negative = growth inhibition",Potency
CCOc1ccc2nc(N3CCCC(C(=O)N4CCN(CC)CC4)C3)sc2c1 (stereo not drawn),inactive: -22.5%,
CCOc1ccc(NC(=O)Nc2cc3c(cc2N2CCCCC2)n(C)c(=O)n3C)cc1,,active: 13 µM
NC(=O)c1c(-c2ccccc2)oc2ccc(O)cc12,inactive: -13.6%,
COC(=O)c1sccc1NC(=O)CSCCc1ccncc1,inactive: -11.1%,
COCCCNC(=O)C[C@H]1C[C@H](C(=O)N(C(C)C)C(C)C)[C@@]2(C)c3[nH]c4cc(CCC(=O)N(C)C)ccc4c3CCN2C1=O,inactive: 1.11%,
O=C(NCc1ccc(F)cc1)c1nnc(Cc2cccc(F)c2)o1,,"inconclusive [inhibitor, single point]"
COc1ccc(-c2noc(-c3cc(-c4ccc(F)cc4)n[nH]3)n2)cc1,,"inconclusive [inhibitor, partial curve]"
Cc1ccc(-c2noc(CN(C(=O)CCCCCN3C(=O)c4ccccc4C3=O)C(C)C)n2)cc1,,"inconclusive [inhibitor, single point]"
O=C(Nc1cccc2ccccc12)c1ccc([N+](=O)[O-])s1,,active: 10.3 µM
COc1cc(-c2noc(-c3ccc(NC4CCCC4)c([N+](=O)[O-])c3)n2)cc(OC)c1OC,inactive: -26%,
CCOC(=O)CCCCN(Cc1ccccc1F)S(=O)(=O)c1ccc(F)c(C(=O)Nc2cc(Cl)cc(Cl)c2)c1,,"inconclusive [inhibitor, single point]"
CN(C)CCCNC(=S)N1CCC(C(=O)c2ccc(Cl)cc2)CC1,,active: 16.4 µM
COc1ccc(C(C(=O)NCC2CCCO2)N(C(=O)c2snc(C(N)=O)c2N)c2ccccc2)cc1OC (stereo not drawn),inactive: -19.6%,
COc1cc(NC(=O)CN2CCN(S(=O)(=O)/C=C/c3ccccc3)CC2)cc(OC)c1OC,,"inconclusive [inhibitor, single point]"
CCNC(=O)C1CCCN(C(=O)c2ccc(-c3ccccc3)cc2)CC1 (stereo not drawn),,"inconclusive [inhibitor, single point]"
CN(c1ccc(F)cc1)S(=O)(=O)N1CCCC(C(=O)NCCc2ccccc2)C1 (stereo not drawn),,"inconclusive [inhibitor, partial curve]"
CC(=O)/C(N=Nc1cccc(C(F)(F)F)c1)=C(\C)O,inactive: -14%,
CSCCC(NC(=O)c1cc(S(=O)(=O)N2CCOCC2)ccc1F)c1nc2ccccc2[nH]1 (stereo not drawn),inactive: -22.2%,
Cc1cccc(NC(=O)CN(CC2CCCO2)C(=O)c2cc(S(=O)(=O)N(C)C)ccc2F)c1C (stereo not drawn),inactive: -12.3%,
COc1ccc(C2=NC(C)(C)N(CC(=O)Nc3cc(OC)cc(OC)c3)C2=O)cc1,inactive: -12.7%,
O=C(Cc1cccs1)Nc1cccc(-c2nc3ccccc3[nH]2)c1,,"inconclusive [inhibitor, single point]"
O=C(CSc1nnc(NC(=O)c2ccccc2)s1)NCc1ccco1,inactive: -14.2%,
CCN1CCN(c2cc(C)c3cc(NC(=O)/C=C/c4cccc(OC)c4OC)ccc3n2)CC1,,"inconclusive [inhibitor, single point]"
CC(=O)c1ccc(S(=O)(=O)NC2CC(=O)N(c3ccc(C)c(C)c3)C2)cc1 (stereo not drawn),,active: 14.6 µM
COc1cc(/C=N/NC(=O)c2[nH]nc3c2CCc2ccccc2-3)ccc1O,,"inconclusive [inhibitor, single point]"

SMILES,"activity change, negative = growth inhibition",Potency
CCOC(=O)c1c(C)oc2c1cc(O)c1ccccc12,inactive: -17.4%,
Cc1ccc(-c2cc3nccc(-c4cc([N+](=O)[O-])ccc4O)n3n2)cc1,,active: 23.1 µM
CCOC(=O)C1=C(COC(=O)COc2ccccc2C(C)C)NC(=O)NC1C (stereo not drawn),inactive: -14.5%,
C=CCn1c(=O)c(C(=O)Nc2ccccc2O)c(O)c2ccccc21,inactive: -9.88%,
CCN(C(=S)Nc1cc(S(=O)(=O)N2CCOCC2)ccc1Cl)c1cccc2ccccc12,,"inconclusive [inhibitor, single point]"
COc1cc(S(=O)(=O)Nc2cccc3cn[nH]c23)c(OC)cc1Cl,inactive: 10.1%,
CC(C)CC(=O)N1CCN(C(=O)c2ccc(-c3ccccc3)cc2)CC1,,active: 23.1 µM
C=CCc1ccc(OCCOCCOc2cccc3cccnc23)c(OC)c1,,active: 29.1 µM
Cc1cc2cc(CCNC(=O)CCc3ccccc3)c(=O)[nH]c2cc1C,inactive: -13.7%,
CCCCNC(=O)CSc1nc2n[nH]c(C)c2c(=N)n1-c1cccc(C)c1,,active: 11.6 µM
Cc1cccc(C)c1NC(=O)C(c1ccnc2ccccc12)n1c(=O)c(-c2ccco2)nc2ccccc21 (stereo not drawn),,active: 16.4 µM
CCOc1ccc(S(=O)(=O)NCc2nc3cccnc3n2Cc2ccccc2OC)cc1,,"inconclusive [inhibitor, single point]"
CCCCCC(O)(c1ccc(OCC)cc1)C(CN1CCOCC1)c1ccccc1 (stereo not drawn),,active: 16.4 µM
CN(C)/C=C/C(=O)Oc1ccc(Cl)cc1Cl,,"inconclusive [inhibitor, partial curve]"
CCN(CC)c1ccc(S(=O)(=O)N(CC)CC)cc1NC(=O)c1cccnc1,,"inconclusive [inhibitor, partial curve]"
CCCC1=C(C(=O)OCC)C(c2ccc(OC)c(CSc3ccccn3)c2)C(C#N)=C(N)O1 (stereo not drawn),,"inconclusive [inhibitor, partial curve]"
Cc1c(C(=O)OC2CCCCCC2)[nH]c2c1C(=O)CC(c1ccccc1)C2 (stereo not drawn),,active: 3.66 µM
COc1ccc(Cc2nc3ccc(C(=O)NCc4cccc(C)n4)cc3o2)cc1OC,,"inconclusive [inhibitor, single point]"
CC(C)C(C)(C#N)NC(=O)CSc1ncnc2sc(-c3ccccc3)cc12 (stereo not drawn),,"inconclusive [inhibitor, single point]"
Cc1ccc(-c2cc(C(=O)NCCCN3CCOCC3)c3ccccc3n2)cc1C,,"inconclusive [inhibitor, single point]"
[O-][n+]1ccc(C(O)c2ccccc2)cc1 (stereo not drawn),inactive: 15.2%,
O=C(/C=C/c1ccco1)Nc1sc2c(c1C(=O)O)CCC2,inactive: -22.5%,
COc1ccccc1NS(=O)(=O)c1ccc2c(c1)NC(=O)CC(=O)N2,inactive: 24%,
CCOC(=O)N1CCN(C(=O)CS(=O)(=O)Cc2nc(-c3ccccc3C)oc2C)CC1,,"inconclusive [inhibitor, single point]"
CC1CCN(C2=NN3C(=N)/C(=C\c4ccc(OC(=O)c5ccco5)cc4)C(=O)N=C3S2)CC1,,"inconclusive [inhibitor, single point]"

SMILES,"activity change, negative = growth inhibition",Potency
CCC(=NNS(=O)(=O)c1ccc(C)cc1)c1ccccc1,inactive: 11.2%,
COc1ccc(NC(=O)/C=C/c2ccccc2)c([N+](=O)[O-])c1,,"inconclusive [inhibitor, partial curve, poor fit]"
c1cc(-c2cccs2)nc(-c2cccs2)c1,inactive: -11.9%,
Cc1cc(C(=O)CSc2nnc(-c3cccs3)o2)c(C)n1-c1ccccc1,,"inconclusive [inhibitor, partial curve, poor fit]"
CC1=C(C(=O)N2CCN(c3ccc(Cl)cc3)CC2)C2(CCC(C)CC2)OC1=O (stereo not drawn),,"inconclusive [inhibitor, single point]"
Cc1ccc(C)c(S(=O)(=O)N2CCN(C(=O)Cc3sc(C)nc3-c3ccc(F)cc3)CC2)c1,,"inconclusive [inhibitor, single point]"
CCN(CC)C(=O)C1=C(C)N(Cc2ccccc2)C(=O)C(CC(=O)NCc2ccco2)C1 (stereo not drawn),inactive: -1.4%,
COc1ccc(C(C(O)C(=O)c2c[nH]c3ccccc23)N2CCN(c3ccc(OC)cc3)CC2)cc1 (stereo not drawn),,"inconclusive [inhibitor, single point]"
CC1CCN(c2ccc3nnc(CCC(=O)Nc4cccc(F)c4)n3n2)CC1,,"inconclusive [inhibitor, single point]"
CCCCN(CC)CCCNC(=O)c1cc2c(=O)oc3ccc(C)cc3c2s1,,"inconclusive [inhibitor, single point]"
c1ccc(Cn2nnnc2C(c2ccccc2)N2CCN(c3nc4ccccc4s3)CC2)cc1 (stereo not drawn),,"inconclusive [inhibitor, single point]"
CCOC(=O)c1sc(N(Cc2ccccc2)C(=O)CSc2ncn[nH]2)nc1C,inconclusive: -39.5% [inhibitor],
CCCn1nc(C(=O)N2CCCc3ccccc32)c2ccccc2c1=O,,active: 18.4 µM
COc1cc(CC(=O)Nc2c(-c3ccccc3)[nH][nH]c2=O)cc(OC)c1,inactive: -16.9%,
COc1ccc(-c2sc3cc(OC)c(OC)cc3c2C#CC2(O)CCCCC2)cc1,,"inconclusive [inhibitor, single point]"
O=C(O)c1cc(S(=O)(=O)Nc2ccc(N3CCCCC3)cc2)ccc1Cl,inactive: -3.15%,
COc1ccccc1NC(C)C(=O)c1c(C)[nH]c2ccccc12 (stereo not drawn),,"inconclusive [inhibitor, partial curve]"
O=C(CCNC(=O)C1CCN(S(=O)(=O)c2ccccc2)CC1)NCCc1cccc(F)c1,,active: 25.9 µM
Cc1cc(C)c(S(=O)(=O)N2CCCOC2CNC(=O)C(=O)NCc2ccccn2)c(C)c1 (stereo not drawn),inactive: -2.68%,
CCOC(=O)c1cc(-c2ccccc2)n(CC(=O)NCc2ccccc2)c1C,,"inconclusive [inhibitor, partial curve]"
Cc1nn(CCc2n[nH]c(=S)n2C)c(C)c1Br,inactive: -0.0466%,
O=C(COc1cccc2ccccc12)Nc1ccc(Cl)cc1C(=O)O,,"inconclusive [inhibitor, single point]"
COc1cccc(OC2(C)CCN(Cc3ccc(-c4ccccn4)cc3)C2)c1 (stereo not drawn),,"inconclusive [inhibitor, single point]"
